# According to PubChem BioAssay AID624417 (National Center for Advancing Translational Sciences (NCATS), 2012):
# About 6,400 (1.6%) of roughly 410,000 compounds were called active. Inconclusive results, whose numbers are uncertain, are shown with a selection of clear calls. The call rests on the fitted dose curve; in most records, active means well fitted inhibition curve with a large enough effect; inconclusive means small, poorly fitted or top-dose-only effect; inactive means no such curve, though single readings can be large or run the other way. A potency beside an inconclusive call is a rough fit, not a confirmed value.
# Molecular target: Glucagon-like peptide 1 receptor (Homo sapiens) (UniProt P43220)
# Chain of UniProt P43220 (P43220 whole entry, looked up): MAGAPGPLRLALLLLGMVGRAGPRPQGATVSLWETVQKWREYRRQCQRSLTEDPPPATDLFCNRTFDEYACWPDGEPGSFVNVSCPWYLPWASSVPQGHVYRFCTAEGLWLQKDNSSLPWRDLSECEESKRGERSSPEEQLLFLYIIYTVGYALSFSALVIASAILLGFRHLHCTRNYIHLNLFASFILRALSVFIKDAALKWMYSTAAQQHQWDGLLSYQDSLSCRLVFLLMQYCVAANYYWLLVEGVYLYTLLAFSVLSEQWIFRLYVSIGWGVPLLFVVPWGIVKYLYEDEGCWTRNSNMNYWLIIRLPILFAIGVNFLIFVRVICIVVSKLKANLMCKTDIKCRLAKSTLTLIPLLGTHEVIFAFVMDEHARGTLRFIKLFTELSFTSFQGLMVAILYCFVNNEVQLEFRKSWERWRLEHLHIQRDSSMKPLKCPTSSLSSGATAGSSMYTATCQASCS
# Assay: qHTS of GLP-1 Receptor Inverse Agonists (Inhibition Mode); further: nearly all actives have a fitted effect of over 55% in size
# Conditions: HEK293 GLP-1R CRE-luciferase, luminescence, 24 h, GLP-1R form is constitutively active; activity change, negative = inhibition: at 38.3 µM (top of the series) unless noted
# Method in brief: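 Stable HEK293 clone (constitutively active GLP-1R + cAMP-response luciferase); 200 cells/uL plated, 12 h pre-culture, compound 24 hr, 37 deg C/5% CO2; detection reagent 12 min RT; luminescence.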
# On the % scale 0 is the no-effect control and ±100 the full control effect; potency means the concentration at half of the fitted maximal effect; tags describe the fitted curve by direction and shape.
Structure (SMILES),Potency,"activity change, negative = inhibition"
CCOc1ccc(C(=O)NCCc2csc(-c3cccc(F)c3)n2)cc1OCC,"inconclusive: 10 µM [inhibitor, single point]",
CCCc1cc(C(=O)N2CCCC(N3CCN(c4ccccc4C)CC3)C2)n(C)n1 (configuration not stated),"inconclusive: 2.24 µM [inhibitor, partial curve, poor fit]",
Cc1ccc(C)c(C(O)c2ncc(-c3cccc(F)c3)[nH]2)c1 (configuration not stated),"inconclusive: 28.2 µM [inhibitor, single point]",
CCc1ccc(-c2nc(CS(=O)CC(=O)NCCc3ccccc3)c(C)o2)cc1 (configuration not stated),"inconclusive: 28.2 µM [inhibitor, single point]",
Cc1nc2cc(NC(=O)Nc3nccs3)ccc2n1C,"inconclusive: 10 µM [inhibitor, single point]",
Cc1nc2sc(-c3ccccc3)cc2c(=O)[nH]1,"inconclusive: 12.6 µM [inhibitor, partial curve, poor fit]",
CC(C)C[C@H]1CN=C(Nc2ccccc2)N1CCC(C)c1ccccc1 (some centres not stated),"inconclusive: 31.6 µM [inhibitor, single point]",
Cc1noc2ncnc(Sc3ccc(Br)cc3)c12,"inconclusive: 2.24 µM [inhibitor, partial curve, poor fit]",
O=C(NCc1ccco1)c1ccc2c(c1)N(Cc1ccc(Cl)cc1)C(=O)c1ccccc1S2(=O)=O,,inactive: -25.8%
COc1ccccc1CN(CC(=O)NCc1ccc2c(c1)OCO2)C(=O)c1ccc2c(c1)OCCO2,"inconclusive: 11.2 µM [inhibitor, partial curve]",
COc1ccccc1CCNC(=O)Cn1ccc2cc(S(=O)(=O)N3CCCC3)ccc21,"inconclusive: 12.6 µM [inhibitor, partial curve, poor fit]",
Cc1nn(C)c(C)c1S(=O)(=O)N(CC(=O)NCCCN1CCC(C)CC1)c1ccc(C(C)C)cc1,"inconclusive: 20 µM [inhibitor, single point]",
CCCCCn1nc(C)c(/C=N/NC(=O)c2ccoc2C)c1C,,inactive: 0%
O=C(O)c1ccccc1C(=O)NC1=NN(c2ccccc2)CC1,"inconclusive: 10 µM [inhibitor, partial curve, poor fit]",
CCN(c1ccccc1)S(=O)(=O)c1ccc(OCc2c(C)noc2C)cc1,"inconclusive: 22.4 µM [inhibitor, single point]",
Cc1cccc(CSc2cccc3cccnc23)c1,"inconclusive: 2.24 µM [inhibitor, full curve, poor fit]",
COc1ccc(S(=O)(=O)N2CCC(C(=O)N3CCc4ccccc4C3)CC2)cc1,"inconclusive: 7.94 µM [inhibitor, partial curve]",
CCOc1ncccc1C(=O)OCC(=O)NCCc1ccccc1,,inactive: 5.05%
O=C(N/N=C\c1ccccn1)C1c2ccccc2Oc2ccccc21,"inconclusive: 22.4 µM [inhibitor, single point]",
CSc1ccc(C(=O)C2CCCN(C(=O)c3csc(C(C)=O)c3)C2)cc1 (configuration not stated),,inactive: -16.8%
CC(C)(c1ccccc1)c1ccc(OCCN)cc1,,inconclusive: -37.7% [inhibitor] [at 7.66 µM]

Structure (SMILES),Potency,"activity change, negative = inhibition"
Oc1ccc(C[C@H]2CN([C@@H](Cc3cccc(O)c3)CN3CCC[C@@H]3CN3C(=S)NC[C@@H]3Cc3ccccc3)C(=S)N2CC2CCCCC2)cc1,"inconclusive: 6.31 µM [inhibitor, full curve, poor fit]",
Cc1cccc(NC(=O)CN2CCCN(S(=O)(=O)c3ccc(Br)s3)CC2)c1,"inconclusive: 28.2 µM [inhibitor, single point]",
CCc1nc2ccc(C(=O)O)cc2nc1CC,"inconclusive: 2 µM [inhibitor, partial curve, poor fit]",
COc1ccc(C2c3c(n(C)c4ccccc34)C(=O)N2CC(=O)Nc2cccc(Cl)c2)cc1 (configuration not stated),"inconclusive: 28.2 µM [inhibitor, single point]",
O=C1CSC(c2ccccc2)N1CC12CC3CC(CC(O)(C3)C1)C2 (configuration not stated),"inconclusive: 28.2 µM [inhibitor, single point]",
COc1cccc2cc(C(=O)NCc3ccccc3)c(=N)oc12,,inactive: 20.9%
CCOC(=O)c1c(NC(=O)CSc2cn(CCNC(=O)c3ccc(OC)cc3)c3ccccc23)sc2c1CCCC2,,inactive: -31.9%
N=C1S/C(=C\c2ccco2)C(=O)N1c1ccc2c(c1)OCO2,,inactive: 200%
CCc1ccc(/C=C/C(=O)c2c(C)cc(C)[nH]c2=O)cc1,"inconclusive: 1.41 µM [inhibitor, full curve, poor fit]",
CCN1CCCC(OC(=O)c2cc(-c3ccccc3Cl)nc3ccccc23)C1 (configuration not stated),"inconclusive: 10 µM [inhibitor, partial curve, poor fit]",
O=C(Nc1ccc2c(c1)OCCO2)c1cc2ccccc2o1,"inconclusive: 7.94 µM [inhibitor, single point]",
CCCN1CCN(C(=O)Cn2c(-c3cccs3)cc3cc(F)ccc32)CC1,"inconclusive: 10 µM [inhibitor, partial curve]",
CCNC(=S)N/N=C/c1cccc(C)c1,"inconclusive: 28.2 µM [inhibitor, single point]",
Cc1ccc(Nc2nc(Cl)c(C=O)s2)cc1Cl,"inconclusive: 10 µM [inhibitor, single point]",
Fc1cccc(-c2csc(-c3ccno3)n2)c1,,inactive: 18%
COc1ccc(-c2nc(C#N)c(NCc3cccnc3)o2)cc1OC,,inactive: 0%
COc1cccc(C2C(C(=O)c3cc4cccc(OC)c4o3)=C(O)C(=O)N2c2cc(C)on2)c1OC (configuration not stated),"inconclusive: 11.2 µM [inhibitor, partial curve, poor fit]",
Cc1cccc(Nc2nc(N)c([N+](=O)[O-])c(N3CCCC(C)C3)n2)c1 (configuration not stated),"inconclusive: 22.4 µM [inhibitor, single point]",
Fc1cccc(NC(=S)NCc2ccccc2Cl)c1,active: 10 µM,
Cc1cccc(N2C(=O)C3C4C=CC(CC4)C3C2=O)c1 (configuration not stated),,inactive: -27.9%
Cc1nn(Cc2ccc(Cl)cc2)c(Cl)c1/C=N/NC(=O)CNc1ccccc1F,"inconclusive: 7.94 µM [inhibitor, partial curve, poor fit]",
